In all, about 340,000 compounds went through this assay and about 12,000 (3.5%) were called active. This list was built around the results that the source calls inconclusive (neither active nor inactive); the mix of calls is not that of the screen. Calls come from the whole dose curve; as a rule, active = well fitted inhibition curve with a large enough effect; inconclusive = small, poorly fitted or top-dose-only effect, or another doubt; inactive = no such curve, though single readings can be large or run the other way. No potency is given beside an inconclusive call; the fits are too rough.
assay: qHTS Assay for Inhibitors of Hepatitis C Virus (HCV); settings: Huh7.5.1 HCVcc-Cre (HCVcc is cell-culture hepatitis C virus) infection, luciferase reporter, 44 h; activity change, negative = inhibition: at 41.8 µM (top of the series) unless noted
How it was run: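 HCVcc-Cre virus at an moi near 0.5 was added right after compound to cells cultured 4 h from seeding (1,000 cells/well). Luciferase activity was determined 44 h later, 15 min after substrate addition at RT.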
% is set by controls: 0 for no effect and ±100 for the full control effect; potency is the fitted concentration of half-maximal effect; tags give direction and shape of the fitted curve.

| SMILES | activity change, negative = inhibition | Potency |
| --- | --- | --- |
| Cc1cc(C(=O)C(=O)NC(C)C)c(C)n1-c1ccc([N+](=O)[O-])cc1 | inactive: 5.85% |  |
| Cc1ccc(NC(=O)CSCC(=O)OC(C)C(=O)Nc2ccccc2C)cc1 (centres undefined) | inactive: 7.92% |  |
| OCc1nc2ccccc2n1CCCCOc1ccccc1 | inactive: -14.9% |  |
| CC1CC(C)CN(C(=O)C(C)N(C)CC(=O)Nc2ccc(Cl)cc2)C1 (centres undefined) |  | inconclusive [inhibitor, single point] |
| COc1ccccc1C(=O)Nc1nc2ccccc2s1 |  | inconclusive [inhibitor, single point] |
| Cc1ccc(C(=O)N(CCc2ccccc2)Cc2ccccc2)cc1S(=O)(=O)N1CCCCC1 |  | inconclusive [inhibitor, partial curve] |
| CC(C)(C)C(=O)N1CCN(c2ccc(NC(=O)c3ccc4c(c3)OCCO4)cc2)CC1 |  | active: 10 µM |
| CN(C(=O)c1cccc(NC(=O)Cc2ccc(NC(=O)C3CCCN(C(=O)C4CCC4)C3)cc2)c1)C1CCC1 (centres undefined) |  | inconclusive [inhibitor, partial curve] |
| Cc1cccc(NC(=O)C2CCN(c3nccc(C)n3)CC2)c1 |  | inconclusive [inhibitor, single point] |
| O=C(c1ccc(Cl)cc1)N1CCN(c2ccc(F)cc2)CC1 |  | inconclusive [inhibitor, single point] |
| COc1cc2[nH]c(=S)nc(NCc3ccc(Cl)cc3)c2cc1OC |  | inconclusive [inhibitor, single point] |
| O=C(CCCc1nc(-c2ccccc2Cl)no1)NC1CCCCC1 |  | inconclusive [inhibitor, full curve, poor fit] |
| CCOC(=O)c1sc2nc(SCC#N)n(CCCN3CCCC3=O)c(=O)c2c1C |  | inconclusive [inhibitor, full curve, poor fit] |
| NC(=O)NCCCC(=O)O |  | inconclusive [inhibitor, partial curve] |
| O=Cc1cccc(Oc2ccc([N+](=O)[O-])cc2[N+](=O)[O-])c1 | inactive: 6.76% |  |
| CCc1nc(N2CCOCC2)c(C#N)c2c1COC(C)(C)C2 |  | inconclusive [inhibitor, single point] |
| Cc1noc(/C=C/c2cccs2)c1S(=O)(=O)N1CCC(C(=O)NCCCN2CCC(C)CC2)CC1 |  | active: 11.2 µM |
| CC1CN(CCCSc2ccc(Cl)cc2)CC(C)O1 (centres undefined) |  | active: 12.6 µM |
| CCC1CCCCN1S(=O)(=O)c1ccc(NC(=O)C2CCN(C(=O)c3ccco3)CC2)cc1 (centres undefined) |  | inconclusive [inhibitor, single point] |
| C#CCN(C[C@@H](CC(C)C)NC(=O)OC(C)(C)C)S(=O)(=O)c1ccc(Br)cc1F |  | inconclusive [inhibitor, single point] |
| CCOc1ccc(Nc2nc(Cc3nnc(SCC(=O)c4ccc(C)cc4)o3)cs2)cc1 |  | inconclusive [inhibitor, full curve] |
| CCOc1ccc(/C=C2\SC(N3CCCCC3)=NC2=O)cc1 |  | inconclusive [inhibitor, partial curve, poor fit] |
| CC(=O)N1CCCc2cc(S(=O)(=O)N3CCCC(C(=O)NCc4ccc(Cl)cc4)C3)ccc21 (centres undefined) |  | active: 14.1 µM |

| SMILES | activity change, negative = inhibition | Potency |
| --- | --- | --- |
| CC1(C)Cc2c(c(-c3ccccc3)nc3sc4c(=O)[nH]c(=S)[nH]c4c23)CO1 | inactive: 0.89% |  |
| Clc1ccc(C2=NNC(=NCC3CCCO3)SC2)cc1 (centres undefined) | inactive: 0.981% |  |
| COc1ccc(CN2C(=O)c3cccnc3C2=O)cc1S(=O)(=O)NC(C)C | inactive: 14.2% |  |
| CCN1/C(=C/c2ccc3ccc(C)cc3[n+]2CC)Sc2ccccc21 |  | inconclusive [inhibitor, single point] |
| CCOC(=O)c1c(C)nn(-c2ccc(NC(=O)c3cccs3)cc2)c1C |  | inconclusive [inhibitor, single point] |
| O=C(C[n+]1cc(-c2ccccc2)n2c1CCCCC2)c1ccc(Br)cc1 |  | inconclusive [inhibitor, partial curve, poor fit] |
| COc1cc(C(C)=O)ccc1OCC(O)CN1CCN(c2ccc(F)cc2)CC1 (centres undefined) |  | inconclusive [inhibitor, single point] |
| COc1ccccc1N1CCN(C(=O)COc2cc(C)ccc2C)CC1 | inactive: -1.42% |  |
| O=C(Nc1sc2c(c1C(=O)c1ccccc1)CCCC2)c1cccnc1 |  | inconclusive [inhibitor, single point] |
| COc1cc(CN(CCN(C)C)Cc2ccccc2)ccc1OCc1ccccc1 |  | inconclusive [inhibitor, full curve] |
| Cc1cc(C)c(CN2CCN(C(=O)Cn3cnc(C(=O)Nc4ccc(C)c(C)c4)n3)CC2)c(C)c1 |  | inconclusive [inhibitor, partial curve, poor fit] |
| COc1ccccc1NS(=O)(=O)c1cccc(NC(=O)c2ccc3ccccc3n2)c1 |  | inconclusive [inhibitor, partial curve] |
| O=C(c1ccncc1)N1N=C(c2ccc(Cl)cc2)CC1c1ccccc1O (centres undefined) |  | inconclusive [inhibitor, single point] |
| O=S(=O)(c1ccccc1)c1nc(-c2ccco2)oc1NCCN1CCOCC1 | inactive: -3.75% |  |
| COc1ccc(C(=O)COC(=O)/C=C/c2ccccc2)c(OC)c1 |  | inconclusive [inhibitor, single point] |
| CSc1nnc(-c2cccs2)n1-c1ccccc1 |  | inconclusive [inhibitor, single point] |
| O=C1C2C3c4ccccc4C(c4ccccc43)C2C(=O)N1/N=C/c1cccc(O)c1 (centres undefined) |  | inconclusive [inhibitor, single point] |
| N#Cc1ccc(NC(=O)NN2CCCCCC2)cc1 |  | inconclusive [inhibitor, single point] |
| O=C(CNc1cc(S(=O)(=O)N2CCOCC2)ccc1N1CCOCC1)Nc1cccc(C(F)(F)F)c1 | inactive: 8.1% |  |
| Cc1ccc(C)c(S(=O)(=O)N/N=C/c2ccc(N3CCOCC3)cc2)c1 | inactive: 18.3% |  |
| Cc1ccc(-n2c(C)cc(/C=N/NC(=O)c3ccncc3)c2C)c(C)c1 |  | inconclusive [inhibitor, full curve, poor fit] |
| O=C(c1cc2ccccc2oc1=O)N1CCN(CCc2ccccc2)CC1 | inactive: 5.64% |  |
| O=C(OC(C(=O)Nc1ccc([N+](=O)[O-])cc1Br)c1ccccc1)c1ccccc1 (centres undefined) |  | inconclusive [inhibitor, single point] |

| SMILES | activity change, negative = inhibition | Potency |
| --- | --- | --- |
| CCCC(=O)NC(c1ccc(N(C)C)cc1)c1ccc2cccnc2c1O (centres undefined) |  | active: 3.16 µM |
| COc1ccc(-c2nn(-c3ccccc3)cc2/C=C(\CC(=O)O)c2nc3ccccc3s2)cc1OC |  | inconclusive [inhibitor, partial curve] |
| COc1ccc(N(C(=O)c2snc(C(N)=O)c2N)C(C(=O)NC2CCCC2)c2cccs2)c(OC)c1 (centres undefined) |  | inconclusive [inhibitor, single point] |
| Oc1ccc(Cl)cc1CNCc1ccc(F)cc1 | inactive: 14% |  |
| FC(F)(F)c1cnc(COc2ccc(Cl)cc2Cl)c(Cl)c1 | inactive: -4.91% |  |
| CCn1c(=O)cc(SCC(=O)Nc2ccc(C)cn2)c2ccccc21 |  | inconclusive [inhibitor, partial curve] |
| CCOC(=O)CSc1nnnn1-c1cc(OC)c(Cl)cc1OC |  | inconclusive [inhibitor, single point] |
| Nc1nc(SCC(=O)N2N=C3/C(=C\c4ccco4)CCCC3C2c2ccco2)n[nH]1 (centres undefined) |  | inconclusive [inhibitor, single point] |
| Cc1ccc(C(=O)NC(=C(Cl)Cl)S(=O)(=O)c2ccc(Cl)cc2)cc1 |  | inconclusive [inhibitor, single point] |
| COC(=O)c1cc(S(=O)(=O)NCCc2ccc(SC)cc2)c[nH]1 |  | inconclusive [inhibitor, single point] |
| Cc1oc(-c2ccc3ccccc3c2)nc1CN(C)C(C)c1ccncn1 (centres undefined) | inactive: -24.3% |  |
| Cc1ccnc(NC(=O)c2ccc(OCc3c(C)noc3C)cc2)c1 |  | inconclusive [inhibitor, partial curve] |
| Cc1cccc(NC(=S)N2CCC(c3nc4ccccc4o3)CC2)c1C |  | inconclusive [inhibitor, single point] |
| O=C(Nc1cccc(C(=O)Nc2ccccc2C(=O)O)c1)c1cccc(Cl)c1 | inactive: 14.5% |  |
| CC(=O)Nc1ccc(S(=O)(=O)N2CCN(CCCOc3cc(C)ccc3C)CC2)cc1 |  | inconclusive [inhibitor, single point] |
| O=C(Cn1cnc2c(cnn2-c2ccccc2)c1=O)N1CCCc2ccccc21 |  | inconclusive [inhibitor, single point] |
| Cc1onc(-c2ccccc2Cl)c1C(=O)N1CCCc2ccccc21 |  | inconclusive [inhibitor, single point] |
| CCCCN1C[C@H](COC(=O)CCC)Oc2cccc(F)c2S1(=O)=O | inactive: 24.3% |  |
| CC(=O)Nc1ccc2c(CN3C(=O)NC(C)(c4ccc(C)cc4)C3=O)cc(=O)oc2c1 (centres undefined) |  | inconclusive [inhibitor, full curve, poor fit] |
| O=C(N/C(=C/c1ccc(Br)cc1)C(=O)N1CCOCC1)c1cccs1 | inactive: 4.37% |  |
| CCCOc1ccc(-c2nnn(CC(=O)c3ccc4c(c3)OCCO4)n2)cc1 |  | inconclusive [inhibitor, partial curve] |
| COc1ccc(CCn2c(C)cc(C(=O)CSc3nnnn3-c3ccccc3)c2C)cc1 | inactive: -19.9% |  |
| COc1cccc(C(=O)N/N=c2/oc3ccccc3cc2C(N)=O)c1 | inactive: -13.2% |  |

Source: PubChem BioAssay AID651820 (National Center for Advancing Translational Sciences (NCATS), 2012)
